Measured values published in PubChem BioAssay AID1240 (Sanford-Burnham Center for Chemical Genomics, 2008).
Among all 50,000 compounds or so, about 800 (1.6%) showed an effect of 50% or more. This is one part of the list.

Each compound was assayed against Bcl-2-like protein 10 (Homo sapiens) (UniProt Q9HD36) (assay: Phenotype converters, Bcl-B/TR3 peptide binding displacement, primary biochemical FP (AID 1240;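 note: 0% = Bcl-B with tracer peptide and DMSO and 100% = tracer peptide lacking Bcl-B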)). Settings: GST-Bcl-B / FITC-TR3 peptide fluorescence polarization; stronger effect = higher value; compound at 3.75 mg/L.
UniProt Q9HD36, sequence (Q9HD36 whole entry, looked up): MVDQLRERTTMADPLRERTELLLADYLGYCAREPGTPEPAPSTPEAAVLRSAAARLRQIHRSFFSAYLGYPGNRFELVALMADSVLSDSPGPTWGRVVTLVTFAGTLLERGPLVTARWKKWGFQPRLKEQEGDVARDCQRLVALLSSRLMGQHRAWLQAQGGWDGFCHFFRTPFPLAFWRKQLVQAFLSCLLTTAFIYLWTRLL

| Structure (SMILES) | displacement [%] |
| --- | --- |
| O=C1CCCC2=C1C(c1ccc([N+](=O)[O-])cc1)C1=C(CCCC1=O)N2c1ccc(Cl)cc1 | 17.8 |
| COc1ccc(C(=O)Nc2ccccc2C(=O)NCc2ccco2)cc1 | 9.5 |
| CC(C)=NNC(=O)C(C)Oc1ccc(Cl)cc1 (stereo not given) | 5.1 |
| CC1=C(C(=O)Nc2cc(Cl)ccc2C)C(c2ccc(F)cc2)NC(=O)N1 (stereo not given) | 12.6 |
| O=C(Nc1nccs1)c1sc2ccccc2c1Cl | -13.5 |
| CCOc1cc(/C=C2\N=C(c3ccccc3)OC2=O)ccc1OCc1c(C)no[n+]1[O-] | 5.7 |
| CC(C)C(=O)Nc1ccc(Oc2ccc(Cl)cc2)cc1 | 0 |
| O=C(Nc1cccc(Br)c1)c1ccccc1[N+](=O)[O-] | 1.8 |
| Cc1cccc(OCC(=O)Nc2ccccc2F)c1C | 3.7 |
| COc1ccc(C2CC(C(F)(F)F)n3ncc(C(N)=O)c3N2)cc1 (stereo not given) | 6.5 |
| CCCOc1ccc(Cl)cc1/C=C(/C#N)c1nc2ccc(C)cc2[nH]1 | 15.5 |
| O=C(Cc1ccccc1)Nc1ncc(Cc2ccc(Cl)cc2Cl)s1 | 17 |
| Cc1ccsc1/C=C1\SC(=S)N(CCc2ccccc2)C1=O | -1.2 |
| CCCOC(=O)c1ccc(N=Cc2cc(Br)ccc2O)cc1 | 10.8 |
| C/C(=N\Nc1cc(-n2nc(C)cc2C)nc(C)n1)c1ccc(C)cc1 | -10 |
| O=C(/C=C/c1ccccc1Cl)Nc1nccs1 | 10.1 |
| C=C(C)C(C)(C#CCN1CCOCC1)OC(C)=O (stereo not given) | 1.4 |
| CCOC(=O)Cc1csc(NC(=O)c2ccc(N3CCOCC3)c([N+](=O)[O-])c2)n1 | -7 |
| COc1ccc(OC)c(N(CC(=O)NCc2ccco2)S(=O)(=O)c2ccccc2)c1 | 3.7 |
| Cc1cccc(NC(=O)/C(C#N)=C\c2ccc(I)o2)c1C | -8.1 |
| CCC(=O)Nc1sc2c(c1C(=O)Nc1ccc(Cl)cc1)CCC2 | -3.3 |
| CC(C)(C#CC(O)(c1ccccc1)c1ccccc1)N1CCCC1 | 0.1 |
| Cc1nc(Nc2nc3ccccc3o2)[nH]c(=O)c1C | 6.4 |
| COc1ccccc1/C=C1\SC(=S)N(Cc2ccco2)C1=O | 1 |
| Cc1ccc(Cc2ccc(C(=O)Nc3ccc([N+](=O)[O-])cc3)o2)cc1 | 6.3 |
| CC(=O)OCc1cc(C)cc(C=O)c1C | -8 |
| CCOC(=O)Cc1cc(OC)c(OC)cc1Cc1cc(OC)c(OC)cc1CC(=O)OCC | 3 |
| CC(C)Sc1nc2ccc(N3C(=O)c4ccccc4C3=O)cc2s1 | -7.2 |

| Structure (SMILES) | displacement [%] |
| --- | --- |
| CCNC(=O)C(=O)Nc1ccc(Cl)c(Cl)c1 | 5.4 |
| CC(C)c1ccc(N2C(=O)NC(=O)/C(=C/c3cn(C)c4ccccc34)C2=O)cc1 | 145 |
| COc1cc(/C=C2\SC(N3CCC(C)CC3)=NC2=O)ccc1O | 29.5 |
| CCOC(=O)c1ccccc1NC(=O)c1ccc(NC(C)=O)cc1 | -4.2 |
| C=CCN1C(=O)/C(=C\c2ccc(O)cc2)C(=O)NC1=S | -14.8 |
| COC(=O)c1sccc1NC(=O)c1cccc(OC)c1 | -1.5 |
| COc1cccc(C(=O)NC(NC(=S)Nc2cc(OC)ccc2OC)C(Cl)(Cl)Cl)c1 (stereo not given) | -0.4 |
| Cc1ccc(-c2noc(-c3ccc(I)cc3)n2)cc1 | 7.9 |
| Cc1ccc(CN2CCN(/N=C/c3cc([N+](=O)[O-])ccc3Cl)CC2)cc1 | 15.9 |
| CC1(C)CC(=O)C2=C(C1)Nc1ccccc1N(C(=O)c1ccccc1)C2c1cccc([N+](=O)[O-])c1 (stereo not given) | -5 |
| CCOc1ccc(/C=C2\C(=O)NC(=O)N(c3ccc(Cl)cc3)C2=O)cc1Cl | 7.8 |
| Cc1cccc(N2CCN(C(=O)c3cccc(Br)c3)CC2)c1C | -8.6 |
| COc1ccc(CNC2=CC(=O)OC23CCCCC3)cc1 | 11.6 |
| COc1c2c(nc3ccccc13)OC(C(C)(O)COC(C)=O)C2 (stereo not given) | 14.6 |
| CCO/C(=N\S(=O)(=O)c1ccc(Br)cc1)c1ccccc1 | 10.3 |
| Cc1cc(/C=C2/NC(=O)NC2=O)c(C)n1-c1cccnc1 | -1.2 |
| COc1ccc(C(=O)N2CCCN(C(=O)c3ccc(OC)cc3)CC2)cc1 | 9.4 |
| CCOC(=O)C1CCN(C(=O)Nc2cccc3ccccc23)CC1 | 11 |
| O=C1c2ccccc2NC(c2ccc(Br)cc2)N1Cc1ccccc1 (stereo not given) | 15.2 |
| O=C1OC(c2ccc(F)cc2)=N/C1=C\c1ccc2c(c1)OCO2 | 15.9 |
| N#Cc1c2c(c(N3CCN(c4ccccn4)CC3)n3c1nc1ccccc13)CCC2 | 2.1 |
| C=CCc1cccc2cc(C(=O)Nc3ccc(S(=O)(=O)Nc4nnc(CC)s4)cc3)c(=O)oc12 | -1.6 |
| O=C(/C=C/c1ccccc1)Nc1ccc(Cl)cc1Cl | 7.3 |
| COc1ccc(C(C)NC(=O)Cc2cccc3ccccc23)cc1 (stereo not given) | -6.8 |
| CC(=O)Nc1ccc(C2=N/C(=C/c3ccc(-c4ccc(C)c(Cl)c4)o3)C(=O)O2)cc1 | -7.2 |
| O=C(Nc1cccc2nsnc12)c1ccccc1[N+](=O)[O-] | 5 |
| O=C1C2C(C(=O)N1/N=C/c1ccc(Br)cc1)C1C=CC2C12CC2 (stereo not given) | 8.3 |
